# Source: a collection of fitness landscapes (doi:10.1016/j.celrep.2020.107928)
# The full ranking holds about 81,000 sequences; the median of “one-hybrid fitness for binding NBS DNA” is about -0.1, and the highest 2% start at about 0.36. Some of the results follow.
# B1: Caulobacter ParB omega fusion; a variant is named by its letters at X, in order, B8GW30 (parent)
# chain: MESVVVGEPGMSEGRRGLGRGLSALLGEVDAAPAQAPGEQLGGSREAPIEILQRNPDQPRRTFREEDLEDLSNSIREKGVLQPILVRPSPDTAGEYQIVAGERAWRAAQRAGLKTVPIMVRELDDLAVLEIGIIENVQRADLNVLEEALSYKVLMEKFERTQENIAQTIGKSXSHVANXMRLLXLPDEVQSYLVSGELTAXHARAIAAAADPVALAKQIIEGGLSVRETEALARKAPNLSAGKSKGGRPPRVKDTDTQALESDLSSVLGLDVSIDHRGSTGTLTITYATLEQLDDLCNRLTRGI
# Variants of: B1
# Assay: one-hybrid fitness for binding NBS DNA (the Noc-binding site; scaled: cognate 1, non-cognate 0); higher = stronger binding
# Details: with NBS DNA site
# Outline: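 Bacterial one-hybrid selection in E. coli USO rpoZ- hisB- pyrF- with a HIS3 reporter carrying the site 19 bp from the promoter, screening Caulobacter ParB libraries with four specificity codons randomised (NNS). Cells grew 48 hours at 37°C on M9-minus-histidine plus 0.1 mM IPTG and 5 mM 3-AT. Plasmids before and after selection were Illumina-sequenced, three replicate libraries pooled, and variants under 10 reads dropped. Fitness is the log change in variant-to-wild-type read ratio, rescaled to cognate 1, non-cognate 0.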
row,Variant,one-hybrid fitness for binding NBS DNA
1,FWFS,≤ 0.2
2,TKTT,≤ 0.2
3,WFKT,≤ 0.2
4,KRDY,≤ 0.2
5,LTCR,≤ 0.2
6,FPAL,≤ 0.2
7,ERNK,≤ 0.2
8,NDRK,≤ 0.2
9,YRCL,≤ 0.2
10,NPKG,≤ 0.2
11,VVCS,≤ 0.2
12,KATM,≤ 0.2
13,RFRW,≤ 0.2
14,SHTC,≤ 0.2
15,QFQC,≤ 0.2
16,PING,≤ 0.2
17,PMPA,≤ 0.2
18,VGMR,≤ 0.2
19,ISDN,≤ 0.2
20,FNWR,≤ 0.2
21,RVVE,≤ 0.2

row,Variant,one-hybrid fitness for binding NBS DNA
1,TDPR,≤ 0.2
2,GPRC,≤ 0.2
3,PFVR,≤ 0.2
4,ASIV,≤ 0.2
5,KARW,≤ 0.2
6,SYSC,≤ 0.2
7,ACHR,≤ 0.2
8,YRPG,≤ 0.2
9,NPQR,≤ 0.2
10,HRYQ,≤ 0.2
11,LKSM,≤ 0.2
12,EGLS,≤ 0.2
13,LAHI,≤ 0.2
14,YQEY,≤ 0.2
15,KIST,≤ 0.2
16,LDAI,≤ 0.2
17,TSEL,≤ 0.2
18,NPGT,≤ 0.2
19,VNKG,≤ 0.2
20,EISS,≤ 0.2
21,AHLR,≤ 0.2

row,Variant,one-hybrid fitness for binding NBS DNA
1,NLLI,≤ 0.2
2,EKPW,≤ 0.2
3,QHCN,≤ 0.2
4,GDAP,≤ 0.2
5,RHEM,≤ 0.2
6,PHGQ,≤ 0.2
7,TFTN,≤ 0.2
8,VRQF,≤ 0.2
9,HSNF,≤ 0.2
10,ISNM,≤ 0.2
11,GHHW,≤ 0.2
12,VRKQ,≤ 0.2
13,SCTP,≤ 0.2
14,NIIF,≤ 0.2
15,KRCT,0.558
16,TGTV,≤ 0.2
17,KRLD,≤ 0.2
18,AIGS,≤ 0.2
19,RFHH,≤ 0.2
20,GETL,≤ 0.2
21,TMYS,≤ 0.2

row,Variant,one-hybrid fitness for binding NBS DNA
1,QHHS,0.386
2,MRFR,≤ 0.2
3,PEQS,≤ 0.2
4,TCQE,≤ 0.2
5,HWSM,≤ 0.2
6,VEES,≤ 0.2
7,PLCT,≤ 0.2
8,KSNV,≤ 0.2
9,QLWM,≤ 0.2
10,CLSN,≤ 0.2
11,NSDR,≤ 0.2
12,WTSL,≤ 0.2
13,YSQR,≤ 0.2
14,TMCY,≤ 0.2
15,LRPQ,≤ 0.2
16,SPVW,≤ 0.2
17,QYQR,0.493
18,HTMN,≤ 0.2
19,VTKF,≤ 0.2
20,IGCT,≤ 0.2
21,HCFR,≤ 0.2
